Data reported in patent US20200255516A1 (JIANGSU HENGRUI MEDICINE, published 2020).
Positions count from the first letter of the chain named. Each block holds one binder with its values, some of them ahead of it.

Molecular target: T1, human TIGIT (Sinobiological Co., Ltd., Cat. 10917-H08-H) (human, UniProt Q495A1 22-141)
T1 construct: also called huTIGIT; TIGIT-His
T1 sequence (looked up): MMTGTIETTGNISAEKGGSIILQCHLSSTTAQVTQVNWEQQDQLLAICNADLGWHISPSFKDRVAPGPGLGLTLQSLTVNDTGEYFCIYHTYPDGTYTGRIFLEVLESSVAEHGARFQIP
Experiment: SPR (Biacore), captured antibody, TIGIT-His as analyte

B1: h1711-07 (antibody, human IgG4 S228P, kappa)
heavy: EVQLVQSGAEVKKPGSSVKVSCKASGYTFSNYWIGWVRQAPGQGLEWIGDIYPGGAYTNYNEKFKDRVTITADKSTSTAYMELSSLRSEDTAVYYCARGDYYDSSGRAMDYWGQGTLVTVSSASTKGPSVFPLAPCSRSTSESTAALGCLVKDYFPEPVTVSWNSGALTSGVHTFPAVLQSSGLYSLSSVVTVPSSSLGTKTYTCNVDHKPSNTKVDKRV[… human IgG4 Fc with S228P (EU numbers) …]
light: DIVMTQSPDSLAVSLGERATINCKSSQSLLYSRNQMNYLAWYQQKPGQSPKLLIYWTSTRESGVPDRFSGSGSGTDFTLTISSLQAEDVAVYYCQQYYSYPYTFGGGTKVEIKRTVAAPSVFIFPPSDEQLKSGTASVVCLLNNFYPREAKVQWKVDNALQSGNSQESVTEQDSKDSTYSLSSTLTLSKADYEKHKVYACEVTHQGLSSPVTKSFNRGEC
Kd: 0.485 nM | koff: 0.000732 s⁻¹ | kon: 1.51e+06 M⁻¹ s⁻¹

B2: h1711-09 (antibody)
heavy: B1 heavy with Y27G, I48M
light: B1 light with N22S
Kd: 1.19 nM | koff: 0.00185 s⁻¹ | kon: 1.55e+06 M⁻¹ s⁻¹

B4: h1711-05 (antibody)
heavy: B1 heavy with Y27G, I48M
light: B1 light
Kd: 1.22 nM | koff: 0.00186 s⁻¹ | kon: 1.52e+06 M⁻¹ s⁻¹

B5: h1711-06 (antibody, human IgG4 S228P, kappa)
heavy: B1 heavy with Y27G
light: B1 light
Kd: 1.05 nM | koff: 0.00152 s⁻¹ | kon: 1.46e+06 M⁻¹ s⁻¹

The remaining binders from weak to strong by Kd, led by results:

Kd: 1.03 nM | koff: 0.00152 s⁻¹ | kon: 1.47e+06 M⁻¹ s⁻¹
B3: h1711-10 (antibody, human IgG4 S228P, kappa)
heavy: B1 heavy with Y27G
light: B1 light with N22S

Kd: 0.494 nM | koff: 0.000852 s⁻¹ | kon: 1.72e+06 M⁻¹ s⁻¹
B7: h1711-11 (antibody, human IgG4 S228P, kappa)
heavy: B1 heavy
light: B1 light with N22S

Kd: 0.207 nM | koff: 0.000441 s⁻¹ | kon: 2.13e+06 M⁻¹ s⁻¹
B6: h1711-08 (antibody, human IgG4 S228P, kappa)
heavy: B1 heavy with L83F, A97T
light: B1 light

Kd: 0.205 nM | koff: 0.000431 s⁻¹ | kon: 2.1e+06 M⁻¹ s⁻¹
B8: h1711-12 (antibody, human IgG4 S228P, kappa)
heavy: B1 heavy with L83F, A97T
light: B1 light with N22S
